Several values for one entry are separate records, joined by “and”; a condition that tells them apart may be missing. Equal entries are not always repeated. About 1,200 (2.5%) of roughly 48,000 compounds were called active. Roughly 2% stayed inconclusive and do not appear here.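 Rule for the calls: active = activation of at least 60% and not above a set upper limit (about 1 call in 100 departs from these limits); inconclusive = activation of 40% to 60%, or above that upper limit; inactive = activation under 40%.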 The list shows a part of the results.

These results are taken from PubChem BioAssay AID1346428 (National Center for Advancing Translational Sciences (NCATS), 2018).

Sequence of UniProt O75388 (O75388 whole entry, looked up): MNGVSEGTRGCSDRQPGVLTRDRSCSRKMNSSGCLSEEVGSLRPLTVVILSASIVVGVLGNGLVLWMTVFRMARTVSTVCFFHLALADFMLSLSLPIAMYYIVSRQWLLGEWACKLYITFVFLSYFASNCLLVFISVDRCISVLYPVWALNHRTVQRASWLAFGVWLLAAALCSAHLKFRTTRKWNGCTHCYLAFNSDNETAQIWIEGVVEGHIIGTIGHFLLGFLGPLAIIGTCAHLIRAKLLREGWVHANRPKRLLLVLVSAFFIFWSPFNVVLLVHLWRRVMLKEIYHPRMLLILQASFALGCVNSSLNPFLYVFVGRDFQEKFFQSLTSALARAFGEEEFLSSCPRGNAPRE

In this assay the target is Probable G-protein coupled receptor 32 (Homo sapiens) (UniProt O75388). As to the kind of experiment: qHTS for Agonists of Human Resolvin D1 Receptor DRV1. Note: 0% is about no effect. The following applies: CHO-K1 GPR32 beta-arrestin PathHunter luminescence, 90 min; at 76.9 µM; active compounds read high; zero percent set by DMSO-only wells. An outline of the steps:
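Step 1: seed CHO-K1 GPR32 beta-arrestin cells, 2,500/well, overnight at 37 °C. Step 2: add compounds, 90 min at 37 °C. Step 3: detection reagent, 1 h ambient, then luminescence.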
For orientation: In qHTS, concentration-response curves come from the screen itself.
Consider `CCOc1ccccc1NC(=O)CN1Cc2ccccc2C1=O`, for which the activation was inactive: -13.7%. Regarding `Cc1cc(-c2ccccc2)nc2cc(C(=O)Nc3cc(C(F)(F)F)ccc3Cl)nn12`, the activation was inactive: -7.21%. As for `COc1ccc(CNC(=O)c2ccc3c(Cl)c4c(nc3c2)CCCC4)c(OC)c1`, the figure is inactive: -1.05%; as for `CCOC(=O)c1ccc(NC(=O)Cn2cc(S(=O)(=O)Cc3ccccc3F)c3ccccc32)cc1`, inactive: -2.47%. With `CCCOc1ccccc1C(=O)Nc1ccc(-c2nc3ccc(C)cc3s2)cc1` the figure was inactive: 4.12%; with `Cc1ccc(Cn2cc3c(n2)-c2c(oc(C(=O)Nc4ccc(F)cc4F)c2C)CC3)cc1`, inactive: -21%; with `Cc1nc(SCC(=O)Nc2ccc(Cl)cc2C(F)(F)F)[nH]c(=O)c1Cc1ccccc1`, inactive: 13.7%.

In the case of `CCn1cc(C(=O)NCCCOC(C)C)c(=O)c2cc(S(=O)(=O)N(C)C3CCCCC3)ccc21`, the activation is inactive: 3.09%. On to `CCN(Cc1ccccc1)Cc1c(O)ccc2c(=O)c(-c3ccccc3Cl)coc12`, for which the activation was inactive: -2.98%. With `COCCCC/C(=N\OCCN)c1ccc(C(F)(F)F)cc1` the figure was inactive: -3.83% and inactive: -1.42%; with `COc1cc(OC)c(NC(=O)CSCc2nc(-c3ccc(OC)c(OC)c3)no2)cc1Cl`, inactive: -15.8%; with `CC(=O)c1cccc(NC(=O)c2ccc3c(c2)c(C)c(C)n3Cc2ccc(Cl)cc2)c1`, inactive: -14.9%.

Turning to `O=C(NCc1ccccc1)c1ccc(Cn2c(=O)c3cccn3c3cccnc32)cc1`, the activation is inactive: 3.71%.

For `Cc1ccc(C)c(N2CCN(S(=O)(=O)c3ccc4c(c3)n(C)c(=O)c(=O)n4C)CC2)c1`, the activation is inactive: -2.82%. For `O=C(Nc1cc(-c2nc3cc(Cl)ccc3o2)ccc1Cl)c1cc2ccccc2o1`, the activation is inactive: -5.18%.

In the case of `CN(Cc1ccccc1)S(=O)(=O)c1ccc(F)c(C(=O)Nc2cc(Cl)cc(Cl)c2)c1`, the activation is inactive: -20.5%. As for `O=C(Cn1c(=O)n(Cc2ccc(F)cc2)c(=O)c2sc3ccccc3c21)NCc1ccccc1`, the figure is inactive: 12.8%; as for `O=C(Nc1cccc(-c2nc3cc(Cl)ccc3o2)c1)c1ccc(F)cc1`, inactive: 6.08%; as for `NC(=O)N[C@@H](CCC(=O)O)C(=O)O`, inactive: 11.2%. As for `Cc1ccc(OCCSc2nc3ccccc3n2CC(=O)N2CCCCC2)c(C)c1`, the figure is inactive: -15%; as for `Cc1nc2ccc(S(=O)(=O)N(CC(=O)Nc3cccc(C)c3C)Cc3ccccc3)cc2s1`, inactive: -4.8%. As for `Cc1ccc(C)c(Cn2c(C(C)NC(=O)c3ccccc3)nc3ccccc32)c1` (stereo not drawn), the figure is inactive: -1.08%; as for `Cc1ccc(NC(=O)C2CCC(CNS(=O)(=O)c3cccc4nsnc34)CC2)c(C)c1` (stereo not drawn), inactive: -12.2%; as for `COc1ccc(-c2nc3sc(CCNC(=O)C(=O)Nc4ccc(C)cc4C)c(C)n3n2)cc1`, inactive: -9.89%.

Turning to `O=C(CSC1=Nc2ccccc2C2=NC(Cc3ccccc3)C(=O)N12)Nc1ccccc1` (stereo not drawn), the activation is inactive: -29.3%. With `O=C(NCc1noc2ccccc12)N1CCN(c2ccccc2F)CC1` the figure was inactive: -4.52%; with `O=C(CCn1cnc2onc(-c3ccc(F)cc3)c2c1=O)N1CCN(c2ccccc2)CC1`, inactive: 15.8%. As for `COc1cccc(OCc2nc3ccccc3n2C)c1`, the figure is inactive: -15.9%; as for `CCOc1cccc2cc(-c3nc(-c4ccc(Cl)cc4)c(C)s3)c(=O)oc12`, inactive: -0.443%. As for `Cc1nc(N2CCOCC2)c2c(C(=O)N3CCN(c4ccc(Cl)cc4)CC3)c(C)oc2n1`, the figure is inactive: -17.3%; as for `COc1ccc(Cn2c(CCC(=O)Nc3cccc(Cl)c3)nc3cccnc32)cc1`, inactive: 6.7%; as for `COc1ccc(-c2ccc(NS(=O)(=O)c3ccccc3Cl)cc2)nn1`, inactive: -15.8%. Regarding `COc1ccc(-c2nsc(NC(=O)c3cccc(OC)c3)n2)cc1`, the activation was inactive: 26.3%. As for `CCOc1ccc(C(c2c(C)[nH]n(-c3ccccc3)c2=O)c2c(C)[nH]n(-c3ccccc3)c2=O)cc1OC`, the activation was inactive: 6.9%. On to `CCc1ccc(-c2cn3c(n2)sc2cc(C(=O)NCCCc4ccccc4)ccc23)cc1`, for which the activation was inactive: -2.19%. As for `CCOC(=O)COc1ccc(CC)cc1C(=O)c1ccn2nc(-c3ccc(Cl)cc3)cc2n1`, the figure is inactive: 8.33%; as for `CCOC(=O)c1c(NC(=O)C(C)Sc2cn(CCNC(=O)c3ccccc3OC)c3ccccc23)sc2c1CCC2` (stereo not drawn), inactive: -5.47%. With `COC(=O)c1sc2cccc(F)c2c1S(=O)(=O)NCc1ccc(Cl)cc1` the figure was inactive: -30.3%; with `Cc1ccc(CSc2ncc(Cl)c(C(=O)Oc3ccc(F)cc3)n2)cc1`, inactive: -2.24%.

Consider `CCOc1ccc(NC(=O)Cn2c(=O)n(CCCC(=O)NCc3ccc4c(c3)OCO4)c(=O)c3ccccc32)cc1`, for which the activation was inactive: -12%. With `COc1ccc(-c2noc(N3CCN(c4ccc(C)cc4)C(C)C3)n2)cc1OC` (stereo not drawn) the figure was active: 60.8%; with `COc1cccc(CNC(=O)CSC2=Nc3ccccc3C3=NC(C)C(=O)N23)c1OC` (stereo not drawn), inactive: -8.02%; with `CCCCS(=O)(=O)c1oc(-c2ccc(F)cc2)nc1S(=O)(=O)c1ccccc1`, inactive: -16.3%. As for `COc1ccccc1N1CCN(CCCNC(=O)c2cnn(-c3ccc(C)c(C)c3)c2C2CCN(C(=O)OC(C)(C)C)CC2)CC1`, the figure is inactive: -18.5%; as for `COc1ccccc1CNC(=O)c1cnc2c(-c3ccccc3)c(C)nn2c1C`, inactive: -13.7%; as for `O=C(c1ccc2c(c1)N(Cc1ccc(F)cc1)C(=O)c1ccccc1S2(=O)=O)N1CCN(c2ccccn2)CC1`, inactive: 9.1%.

For the compound `COc1ccc(C(=O)Nc2ccccc2-c2nc(-c3ccc(OC)cc3)no2)cc1`, the activation was inactive: 4.49%. Regarding `O=C(c1cnc(N2CCCCC2)c2ccccc12)N1CCN(c2ccc(Cl)cc2)CC1`, the activation is inactive: -34.2%. For the compound `CCc1nn(CC(=O)N2CCN(c3ccc(Cl)cc3)CC2)c(=O)c2cc3occc3n12`, the activation is inactive: -24.2%.

Regarding `CCn1c(=O)n(-c2cccc(Cl)c2)c(=O)c2sc3ccccc3c21`, the activation is inactive: -4.92%. `O=C(Nc1ccc(Cl)cc1)c1cc2nc(-c3ccc4c(c3)OCO4)cc(C(F)(F)F)n2n1`: the activation was inactive: -7.62%. As for `CC(=O)c1ccc(N2CCN(C(=O)c3cc4ccc5cccnc5c4[nH]3)CC2)cc1`, the figure is inactive: -13%; as for `Cc1cccc(NC(=O)C2CCCN(S(=O)(=O)c3ccc4c(c3)oc(=O)n4C)C2)c1` (stereo not drawn), inactive: -16.8%; as for `O=S(=O)(NCCS(=O)(=O)N1CCN(c2ccccc2)CC1)c1ccc(Cl)cc1`, inactive: -15.8%.

With `Cc1sc2c(c1C)c(=O)n(CCc1ccccc1)c(=O)n2Cc1ccc(F)cc1`, the activation is inactive: -4.44%.

In the case of `Cc1ccc(C)c(S(=O)(=O)NCCc2csc(-c3ccc(Cl)cc3)n2)c1`, the activation is active: 73.6%.

In the case of `COc1ccc(CCN2CC(C(=O)NCCc3ccccc3)CC2=O)cc1OC` (stereo not drawn), the activation is inactive: -11.5%.

With `O=C(CCC(=O)c1ccccc1)Nc1ccc(F)c(Cl)c1`, the activation is inactive: 24.2%. For `COc1ccc(OC)c(/C=C(\C#N)c2nc3ccccc3c(=O)[nH]2)c1`, the activation was inactive: 14%. As for `Cc1cc(C)c2sc(N(Cc3cccnc3)C(=O)CCOc3ccccc3)nc2c1`, the figure is inactive: -2.17%; as for `CCCC(=O)C1=C(c2cccc(OC)c2)N(C(=O)CCC)n2c(C)nnc2S1`, inactive: -93.1%. As for `CCOC(=O)c1ccc2c(c1)[C@@H]1C=CC[C@@H]1[C@H](c1cccc(OC)c1OC)N2`, the figure is inactive: -11.7%; as for `COc1ccccc1CNC(=O)CN(c1ccc(C)cc1)S(=O)(=O)c1c(C)noc1C`, inactive: 30.4%. Regarding `O=C(Nc1c(-c2ccc(F)cc2)nc2ccccn12)c1cccc(F)c1`, the activation is inactive: -3.3%. Turning to `Cc1c(C(=O)Nc2ccc(F)c(F)c2)oc2ccc(S(=O)(=O)N3CCC4(CC3)OCCO4)cc12`, the activation was inactive: 9.91%. Turning to `CC(=O)Nc1ccc(NS(=O)(=O)c2ccc(Cl)s2)cc1`, the activation is inactive: -1.71%. For `Cc1nn(-c2ccc(F)cc2)c(-n2cccc2)c1C(=O)N1CCN(c2ccccc2F)CC1`, the activation is inactive: -0.0295%. With `COc1ccc(OC)c(NC(=O)c2cnc(N3CCCC3)nc2C)c1`, the activation was inactive: 1.98%. Consider `CCCCc1ccc(NS(=O)(=O)c2ccc(N3CCCCS3(=O)=O)cc2)cc1`, for which the activation is inactive: -6.21%. On to `CCOc1ccc(C(=O)c2cn(Cc3ccccc3)c3c(F)cc(F)cc3c2=O)cc1`, for which the activation was inactive: 2.59%. In the case of `Cc1ccc(C2C=C(c3ccc(F)cc3)Nc3nc(CCCO)nn32)cc1` (stereo not drawn), the activation was inactive: -11.8%. For the compound `CCCOc1ccc(NC(=O)CC2C(=O)N(c3ccc(C)cc3)C(=O)N2C2CCCC2)cc1` (stereo not drawn), the activation was inactive: -2.09%.

As for `CCSc1ncc(Cl)c(C(=O)N(Cc2ccccc2)Cc2ccco2)n1`, the activation is inactive: -35%. As for `O=C(CN1C(=O)CCc2cc(S(=O)(=O)N3CCOCC3)ccc21)NCc1ccccc1Cl`, the figure is inactive: -24.9%. With `CCSc1nnc2c(n1)OC(c1sccc1C)N(C(C)=O)c1ccccc1-2` (stereo not drawn) the figure was inactive: 0.754%. `CC1=C(C(=O)Nc2cc(Cl)ccc2C)C(c2ccco2)n2ncnc2N1` (stereo not drawn): the activation was inactive: -7.97%. As for `COc1ccc(Cn2c(=O)c3oc4ccccc4c3n(Cc3cccc(F)c3)c2=O)cc1`, the activation was inactive: -16.2%. As to `CCOC(=O)C1CCCN(S(=O)(=O)c2cc3c(cc2C)NC(=O)CO3)C1` (stereo not drawn), the activation was inactive: -7.18%. As for `O=C(NCc1cccc(F)c1)c1ccc2nc(N3CCCCC3)sc2c1`, the figure is inactive: 8.91%; as for `Cc1c(C)n(C)c2ccc(C(=O)NCCc3ccc(Cl)cc3)cc12`, inactive: -23.9%. Regarding `COC(=O)c1c(C)oc2ccc(N(C(=O)Oc3ccccc3)S(=O)(=O)c3ccc(C(C)(C)C)cc3)cc12`, the activation was inactive: 6.75%. As for `CCN(CC)CCNC(=O)c1ccc(NS(C)(=O)=O)cc1`, the figure is inactive: -5.26%; as for `O=C(NCCc1ccc(Cl)cc1)c1ccc2c(c1)N(Cc1c(F)cccc1Cl)C(=O)CS2`, inactive: 7.83%.
